Data on 112 compounds can be found in PubChem BioAssay AID488969 (Vanderbilt High Throughput Screening Facility, 2010).

The full ranking holds about 110,000 compounds; the median of “z-score” is about -0.1, and the highest 2% start at about 2. Some of the results follow. The source made the active and inactive calls.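 The calls were made as follows: active = z-score in the third read window above 3 or below -3; inactive = the rest.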

This assay concerns the target Metabotropic glutamate receptor 8 (Rattus norvegicus) (UniProt P70579). Kind of assay: rat mGluR8 modulators via GIRK flux, primary screen, cell-based, thallium flux, HTS (AID 488969). The note with it: HEK293 rat mGluR8, GIRK (G protein-gated inwardly rectifying potassium channel) thallium flux, FluoZin2; at 10 µM; stronger effect = higher value; submaximal glutamate (EC20) added with thallium.
Chain of UniProt P70579 (P70579 whole entry, looked up): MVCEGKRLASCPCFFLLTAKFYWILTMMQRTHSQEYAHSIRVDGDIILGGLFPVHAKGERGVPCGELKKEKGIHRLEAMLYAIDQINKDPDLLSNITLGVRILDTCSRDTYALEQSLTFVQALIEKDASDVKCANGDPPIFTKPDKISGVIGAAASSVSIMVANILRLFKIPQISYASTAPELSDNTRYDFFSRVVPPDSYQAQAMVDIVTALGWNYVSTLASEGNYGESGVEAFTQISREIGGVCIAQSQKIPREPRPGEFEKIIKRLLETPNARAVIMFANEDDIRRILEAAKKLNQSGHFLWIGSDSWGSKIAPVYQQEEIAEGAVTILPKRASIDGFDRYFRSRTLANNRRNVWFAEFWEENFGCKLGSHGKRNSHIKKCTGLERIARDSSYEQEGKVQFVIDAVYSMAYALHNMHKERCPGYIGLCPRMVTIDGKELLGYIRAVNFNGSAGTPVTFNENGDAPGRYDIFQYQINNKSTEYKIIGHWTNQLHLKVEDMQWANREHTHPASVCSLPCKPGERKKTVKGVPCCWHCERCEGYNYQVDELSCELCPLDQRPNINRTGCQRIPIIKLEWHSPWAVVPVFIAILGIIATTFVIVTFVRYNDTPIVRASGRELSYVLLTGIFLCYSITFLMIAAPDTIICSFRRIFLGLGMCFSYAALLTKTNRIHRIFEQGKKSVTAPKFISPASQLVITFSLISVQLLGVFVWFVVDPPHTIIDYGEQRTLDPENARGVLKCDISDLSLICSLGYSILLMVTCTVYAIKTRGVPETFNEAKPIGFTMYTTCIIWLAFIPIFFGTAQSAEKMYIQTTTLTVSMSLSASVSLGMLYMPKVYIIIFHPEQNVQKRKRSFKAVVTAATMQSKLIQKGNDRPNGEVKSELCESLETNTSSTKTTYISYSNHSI
Turning to `Cc1ccccc1-n1c(O)c(/C=N/N2CCCCC2c2cccnc2)c(=O)[nH]c1=O` (configuration not stated), the z-score was -0.187.
As to `O=C(CN(Cc1ccc2c(c1)OCO2)C(=O)CSc1nc2ccccc2o1)NC1CCCCC1`, the z-score was -0.225.
The value for `Cc1ccc(NC(=O)c2cccc(NC(=O)/C=C/c3ccco3)c2)cc1C` was -0.217.
The compound `CCOC(=O)c1cnc2c(Cl)cccc2c1NCCN1CCOCC1` registered a z-score of -0.145.
Consider `Cc1sc2nc(CN3CCCC3)nc(N3CCN(S(=O)(=O)c4cccs4)CC3)c2c1C`, for which the z-score was active: 4.12.
As for `CCCCCn1c(Sc2nc3ccccc3s2)nc2c1c(=O)[nH]c(=O)n2C`, the z-score is -0.211.
Regarding `CCOC(=O)N1CCC(N2C(=O)c3ccccc3C2Nc2ccccc2)CC1` (configuration not stated), the z-score was -0.126.
The value for `CCC1(C)NC(=O)N(CC(=O)N2N=C(c3ccccc3)CC2c2ccc(OC)cc2)C1=O` (configuration not stated) was 0.0737.
Then `CCOP(=O)(OCC)C(NC(=O)Nc1ccccc1)C(N)=O` (configuration not stated), with -0.102; and `COC(=O)CSc1nnc(SCc2ccccc2)s1`, with -0.258.
Turning to `CCOc1ccc(C(=O)Nc2ccccc2N2CCCC2)cc1`, the z-score stood at 0.612.
As to `CCOc1ccccc1NC(=O)c1ccccc1NS(C)(=O)=O`, the z-score is 0.0037.
The compound `Cc1cc(C)nc(NC(=O)CSc2nc3cc(Cl)ccc3s2)n1` gave a z-score of -0.174.
Then `CC(C)Cn1cnc2c(=O)oc3ccccc3c21`, with -1.48; and `CCC(=O)Nc1ccc2oc(-c3cccc(C)c3)nc2c1`, with -0.279; and `CCOc1ccc(OCCN(C)Cc2ccccc2)cc1`, with 0.127.
The value for `O=C(NCc1ccccc1Cl)c1ccccc1CCc1ccccc1` was -0.873; that for `CCNC(=O)CN1C(=O)NC2(CCCCCC2)C1=O` was 0.0257; that for `CCCCn1nc2cc(C(=O)NCC34CC5CC(CC(C5)C3)C4)ccc2c1OC` was -0.2.
`Cc1ccccc1-c1nc2ccccc2o1`: the z-score is -0.134.
The value for `NC(=O)NCCC1=CCCCC1` was -0.106; that for `COC(=O)c1ccc(NC(=O)CSc2ccccc2)cc1` was 0.651; that for `COc1ccccc1OCC(=O)NNC(=O)C(=O)N1CCCC1` was 0.41.
Take `CN1CCN(CCC(=O)N2c3ccccc3Sc3ccc(Cl)cc32)CC1`: the z-score is -0.245.
Consider `Cc1cccc(OCC(=O)O/N=C(\N)c2ccccn2)c1`, for which the z-score was -1.72.
As to `CC1(C)CC(NC(=O)COc2ccc3ccccc3c2)CC(C)(C)N1`, the z-score amounted to 0.622.
Regarding `CSCc1cc(N2CCOCC2)nc(SCc2ccc(Cl)cc2Cl)n1`, the z-score is -0.112.
Regarding `Cc1ccn2c(C(=O)CSc3ccc(Cl)cc3)c(C)nc2c1`, the z-score was -0.0783.
For `CCC(C)N(CCNC(=O)CC1Oc2ccccc2NC1=O)C1CCCCC1` (configuration not stated), the z-score came to 0.552.
`O=C(NCC(c1cccnc1)N1CCN(c2ccc(F)cc2)CC1)c1ccc2c(c1)OCO2` (configuration not stated) showed a z-score of 0.329.
The compound `CSCCC(NC(=O)CCN1C(=O)c2ccccc2C1=O)C(=O)O` (configuration not stated) came in with a z-score of -0.451.
In the case of `CCOC(=O)CC(NC(=O)Cc1ccccc1)c1ccccc1Cl` (configuration not stated), the z-score was determined as 0.159.
Consider `CC(C)CCC(C(=O)O)C(C)CC(=O)NC1CCCCC1` (configuration not stated), for which the z-score came out at 0.274.
Compound `CSc1nc2ccc(NS(=O)(=O)c3ccccc3F)cc2s1` registered a z-score of -0.495.
The value for `Cc1c(NC(=O)c2cc(-c3ccc(Cl)s3)nc3ccccc23)c(=O)n(-c2ccccc2)n1C` was -0.639.
Compound `CCCS(=O)(=O)Nc1cc(C(F)(F)F)ccc1OCCOC` gave a z-score of 1.49.
As for `Cc1cc2oc(=O)cc(CN3CCOCC3)c2cc1C`, the z-score is -0.0906.
`O=C(O)CCSc1nnc(-c2cccnc2)n1-c1ccccc1`: the z-score was -0.119.
As for `COc1ccc(NC(=O)N2CCCCC2)cc1`, the z-score is 0.0992.
The compound `C/C(=N\NC(=O)c1nn(C)cc1Br)c1cccc(NC(=O)C2CCCC2)c1` returned a z-score of -0.261.
The value for `Cc1nn(-c2ccccc2)c2sc(-c3nnc(SCC(=O)O)o3)cc12` was 0.0762; that for `Cc1nn(C)cc1/C=N/NC(=O)Cn1nccc1C` was 0.6.
In turn, `O=C(NNC(=O)C1C2CCC(C2)C1C(=O)O)c1ccc(Br)o1` (configuration not stated) yielded a z-score of 1.08.
`Cc1ccc(NC(=O)c2cc(S(=O)(=O)NCCC3=CCCCC3)ccc2F)cc1F` showed a z-score of -0.316.
In the case of `N#Cc1ccc(Oc2nc(C#N)cc(-c3ccccc3)n2)cc1`, the z-score was -0.015.
On to `Cc1cc(C)c(COCc2cc(/C=N/O)c(C)cc2C)cc1/C=N/O`, for which the z-score came to 0.0209.
The compound `Cc1c2ccccc2nc2c(F)c(N(C)C)c(F)c(F)c12` returned a z-score of -0.214.
Turning to `CCOC(=O)CC(=O)CSc1nc2nc(C)cc(C)n2n1`, the z-score turned out to be 0.214.
The value for `CC(C)CCNC(=O)c1ccc(Cl)c(NC(=O)Cc2ccccc2)c1` was -0.322.
With `CCOC(=O)c1cnc(-c2ccccc2)nc1N(C)C`, the z-score is -0.275.
With `Cc1cc([N+](=O)[O-])nn1CC(=O)N1c2ccccc2CC1C` (configuration not stated), the z-score is 0.534.
On to `CC(C)(C)c1ccc(C(=O)c2c[nH]c(C(=O)NCC3CCCO3)c2)cc1` (configuration not stated), for which the z-score turned out to be 0.303.
In turn, `CCCc1nc2n[nH]c(N)c2c2c1COC(C)(C)C2` gave a z-score of 0.739.
The compound `COc1ccc(Cc2nnc(NS(C)(=O)=O)s2)cc1` gave a z-score of 0.376.
`O=C(c1cccn(Cc2ccc(Cl)c(Cl)c2)c1=O)N1CCOCC1` yielded a z-score of -0.0147.
Take `CCNC(=S)N(Cc1ccc2c(c1)OCO2)C1CC(=O)N(c2ccc(OC)cc2)C1=O` (configuration not stated): the z-score was -0.17.
Compound `CCC(=O)NC(=S)Nc1ccc(Cl)cn1` registered a z-score of 0.168.
`COc1ccc2nc(NC(=O)CSc3nnc(N)s3)sc2c1`: the z-score turned out to be 0.075.
For the compound `Cc1cc(Nc2nc3ccccc3nc2Cl)n(-c2ccccc2C)n1`, the z-score was -0.459.
In turn, `CC(=O)Nc1c(O)nc(SCC(=O)Nc2cccc(C)c2)[nH]c1=O` showed a z-score of -0.267.
For the compound `CN1CCN(c2ccccc2NC(=O)Cc2cn(C)c3ccccc23)CC1`, the z-score was found to be 1.39.
The value for `CN1CCCN(C(=O)c2ccc(Cl)c(S(=O)(=O)N(C)c3ccccc3)c2)CC1` was -0.561; that for `NC(=O)c1ccccc1NS(=O)(=O)Cc1ccc(Cl)cc1` was -0.0561; that for `CCOC(=O)C1=C(CSc2nccn2C)NC(=O)NC1c1ccc2c(c1)OCO2` (configuration not stated) was -0.293.
Compound `CCOC(=O)C12CNC(=O)C(C(=O)OCC)(CNC1=O)C2` registered a z-score of -1.28.
`CCSc1nc(O)c(C2OC(=O)c3c2ccc(OC)c3OC)c(=O)n1CC` (configuration not stated) registered a z-score of 0.442.
`COc1ccc(/C(O)=C2/C(=O)C(=O)N(CCN3CCOCC3)C2c2ccc(C)cc2)cc1` (configuration not stated) had a z-score of 0.181.
Then `CCCSc1nnc(-c2c[nH]c3ccccc23)n1C`, with 0.341; and `CCOc1ccc(C2C(C(=O)c3cccs3)=C(O)C(=O)N2CCCn2ccnc2)cc1` (configuration not stated), with 0.048.
`COc1ccc(COc2ccccc2C(=O)NCc2ccccc2)cc1F` showed a z-score of 0.112.
Then `CCOC(=O)c1sc(NC(=O)CSc2nnnn2-c2ccc(C)cc2)c(C(=O)OCC)c1C`, with 1.03; and `COC(=O)c1cc2n(n1)CCN(Cc1ccccc1F)C2=O`, with -0.243.
As for `O=C(CCN1CCN(C(c2ccccc2)c2ccccc2)CC1)N/N=C/c1ccc(O)cc1O`, the z-score was -0.572.
In turn, `O=C(NCc1ccc(F)cc1)c1cc(-c2cccs2)on1` yielded a z-score of -0.103.
As for `O=C(COC(=O)CN1C(=O)c2ccccc2C1=O)Nc1ncc(Cl)cc1Cl`, the z-score stood at 0.719.
In turn, `Cn1c(=O)c2c(nc(NCC(O)CO)n2CCc2ccccc2)n(C)c1=O` (configuration not stated) had a z-score of -0.168.
Then `COc1cccc(C2CC(c3ccc(Cl)cc3Cl)Nc3nc(N)nn32)c1` (configuration not stated), with 0.631; and `O=C(CC1N=C2c3ccccc3N=C(SCc3ccc(Cl)cc3)N2C1=O)NCc1ccco1` (configuration not stated), with -0.12.
For the compound `O=C(O)C12CC3CC(C1)CC(n1ncc(N4CCN(c5ccccc5)CC4)c(Cl)c1=O)(C3)C2`, the z-score is -0.147.
In turn, `CN(CCNC(=O)c1cn(C)c2ccc(S(=O)(=O)N3CCCC3)cc2c1=O)CCc1ccccc1` registered a z-score of -0.305.
`CSC1=NCCN1C(=O)Cc1ccc(F)cc1` registered a z-score of 0.756.
Compound `CC(/C=C/C=C/c1ccccc1)=N/NC(=O)CNc1ccc(C)cc1` showed a z-score of -0.494.
For the compound `CCOc1ccc(/C=c2\sc3nc(-c4ccco4)nn3c2=O)cc1OCC`, the z-score was -0.218.
Then `O=C(Nc1ccc(F)cc1)c1ccc(COc2ccccc2)cc1`, with 0.314; and `Cc1cc(NS(=O)(=O)c2ccc(NC(=O)c3cc(-c4ccccc4Cl)nc4ccccc34)cc2)no1`, with -1.51.
The compound `COCCn1c(=NC(=O)c2cccs2)sc2cc(NC(C)=O)ccc21` had a z-score of -0.0102.
With `Cc1cc(C)nc(NS(=O)(=O)c2ccc(NC(=O)c3ccc(S(=O)(=O)N4CCOCC4)cc3)cc2)n1`, the z-score is -0.0492.
`Cn1c(SCC(=O)N/N=C/c2cccs2)nc2ccccc21` gave a z-score of -0.158.
In turn, `CCCC1=C(C(=O)OCC)C(c2c(C)nn(-c3ccccc3)c2Cl)C(C#N)=C(N)O1` (configuration not stated) displayed a z-score of -0.587.
Then `CCOc1cc(/C=C/C(=O)c2ccc(O)cc2)ccc1OCC(=O)N(C)C`, with -0.134; and `CCn1c(COc2ccccc2C)nnc1SCC(=O)Nc1ccc2c(c1)OCCO2`, with 0.604; and `c1cc2c(cc1C1CCCN1)OCCCO2` (configuration not stated), with -0.219.
For `Cc1ccccc1OCc1nnc(SCC(=O)Nc2ccc3nc(SCC(=O)NC(C)(C)C)sc3c2)n1C`, the z-score was -0.163.
The compound `CC1=C(C(=O)N2CCCCC2)C(c2cccs2)C2=C(CCCC2=O)N1` (configuration not stated) yielded a z-score of 0.187.
The value for `O=C(O)C1CCCCC1C(=O)Nc1cccc(Cl)c1Cl` (configuration not stated) was 0.0879; that for `CCN(C(=O)c1cc2ccccc2oc1=O)c1ccccc1` was 0.0722; that for `Cc1ccc2oc(-c3ccccc3C(=O)O)cc(=O)c2c1` was -0.04.
With `Cc1cccc(NC(=O)CSc2nnc(Cn3cnc4ccccc43)o2)c1`, the z-score was -0.219.
`CCOc1ccc(C(C)(N)C(=O)O)cc1` (configuration not stated) displayed a z-score of 0.101.
The value for `Cc1ccc(N2C(=O)C(Cc3ccccc3)NC2=S)cc1` (configuration not stated) was 0.815; that for `S=C1COC(c2ccccc2)N1c1ccccc1` (configuration not stated) was 1.17; that for `Cc1ccc(-n2ncc3c(NCCCOC(C)C)ncnc32)c(C)c1` was 0.0495.
Then `O=C(CN1CCC(n2nnc3cc(F)ccc32)CC1)N1CCc2ccccc2C1`, with -0.899.
The value for `Cc1ccc(CC2CC(=O)N(c3nc4ccccc4n3C)C2=O)cc1` (configuration not stated) was -0.156; that for `COc1ccc(-n2nc(C(=O)N3CCC(C#N)CC3)c3c4ccccc4n(C)c3c2=O)cc1` was 0.258.
For the compound `CCn1c(N)c(C(=O)NCc2ccco2)sc1=S`, the z-score is active: 4.44.
The compound `Cc1ccc(C(=O)N2CCC(C)CC2)cc1C` registered a z-score of -0.0216.
`Cc1c(NC(=O)Cc2ccccc2)cccc1C(=O)NN1C(=O)c2ccccc2C1=O`: the z-score was -0.321.
Turning to `Cc1cc(C(=O)C(C)OC(=O)C2=NNC(=O)CC2)c(C)n1-c1ccc(OC(F)F)cc1` (configuration not stated), the z-score was -0.192.
`Cc1cc(C)nc(NC2=NCC(=O)N2c2ccccc2)n1`: the z-score is -0.36.
Compound `CCOc1ccc(NC(=O)c2cc3n(n2)C(C(F)(F)F)CC(c2ccco2)N3)cc1` (configuration not stated) returned a z-score of 0.00129.
The value for `COc1ccc(CCN=C(N)NS(=O)(=O)c2ccc3ccccc3c2)cc1` was -0.0515.
